{"source": "PubChem BioAssay AID485297", "about": "(National Center for Advancing Translational Sciences (NCATS), 2010)", "note": "Hit rate of the full screen: of about 320,000 compounds, about 9,100 (2.8%) were called active. Inconclusive means that the source gave no clear call. Such entries were picked first, then a sample of the others. Calls follow the shape of the dose curve; as a rule, active = well fitted activation curve with a large enough effect; inconclusive = small, poorly fitted or top-dose-only effect; inactive = no such curve, though single readings can be large or run the other way. No potency is given beside an inconclusive call; the fits are too rough. Potency is read from the fitted curve at half-maximal effect; tags tell the direction and shape of the fitted curve.", "data": [{"experiment": "qHTS Assay for Rab9 Promoter Activators; also: nearly all actives have a fitted effect of over 60% in size", "details": "Huh7 Rab9 promoter-luciferase reporter, luminescence, 24 h; series mostly up to 9.22 µM", "outline": "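Luciferase signal after 10 min detection reagent at ambient indicates Rab9 promoter upregulation; stably transfected Huh7 cells were treated 24 h with compound in DMSO at 37 °C, 5% CO2.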", "values": [{"smiles": "C/C(=N\\N=C\\c1ccccc1F)c1nnn(-c2nonc2N)c1C", "Potency": "inconclusive [activator, partial curve]"}, {"smiles": "Cc1cc(C)nc(NC(=NCCc2c[nH]c3ccccc23)NC(=O)c2ccco2)n1", "Potency": "inactive"}, {"smiles": "Cc1cccc(OCc2nc3ccccc3n2C)c1", "Potency": "inconclusive [activator, single point]"}, {"smiles": "CCc1ccc(NC(=O)[C@H](Cc2ccccc2)NC(=O)C2CCN(C(=O)[C@@H](N)CC(C)C)CC2)cc1", "Potency": "inactive"}, {"smiles": "COC(=O)c1ccc2c(=O)[nH]c(CSc3nc(C)cs3)nc2c1", "Potency": "inconclusive [activator, single point]"}, {"smiles": "Cc1nc2ccccn2c1C(=O)Nc1ccc2c(c1)OCCO2", "Potency": "inconclusive [activator, partial curve]"}, {"smiles": "N/C(=N\\OC(=O)c1cccc2ccccc12)c1ccccn1", "Potency": "inconclusive [activator, single point]"}, {"smiles": "CCOc1cc(N(CC)CC)ccc1/C=C(/C#N)c1nc2ccccc2[nH]1", "Potency": "inconclusive [activator, partial curve]"}, {"smiles": "CC1(C)CC(=O)c2sc(NC(=O)c3ccc4ncsc4c3)nc2C1", "Potency": "inconclusive [activator, partial curve]"}, {"smiles": "O=C(CC(SCCO)c1ccc2c(c1)OCO2)c1cccs1", "note": "(stereo not given)", "Potency": "active: 3.98 µM"}, {"smiles": "Cc1nn(-c2ccccc2)c(Cl)c1/C=N/Nc1nnc(C)c(=O)[nH]1", "Potency": "inactive"}, {"smiles": "O=C(CCCCCN1C(=O)CCC1=O)Nc1ccc2c(c1)OCCO2", "Potency": "inactive"}, {"smiles": "c1ccc(CSc2nnc(-c3cccnc3)o2)cc1", "Potency": "inconclusive [activator, partial curve]"}, {"smiles": "Cc1ccc(C)c(S(=O)(=O)NCc2ccc(C(=O)NCc3ccco3)cc2)c1", "Potency": "inconclusive [activator, single point]"}, {"smiles": "Cn1c(=NC(=O)CCS(=O)(=O)c2ccccc2)sc2cc(F)ccc21", "Potency": "inconclusive [activator, single point]"}, {"smiles": "Cc1nn(-c2nc3ccccc3s2)c(N)c1-c1ccccc1", "Potency": "active: 2.24 µM"}, {"smiles": "Cc1ccc(C(=O)Nc2cccc(C(=O)N3CCN(C)CC3)c2)cc1", "Potency": "active: 4.47 µM"}, {"smiles": "CN(C)c1ccc(/C=N/NC(=O)c2ccc3c(c2)OCCO3)cc1", "Potency": "inconclusive [activator, partial curve]"}, {"smiles": "CC1=CN2C(=N)/C(=C/c3cn(CCCOc4ccccc4C)c4ccccc34)C(=O)N=C2S1", "Potency": "inconclusive [activator, partial curve, poor fit]"}, {"smiles": "CCOc1ccc(S(=O)(=O)NCc2ccccc2)cc1C(N)=O", "Potency": "inconclusive [activator, single point]"}]}]}
